According to PubChem BioAssay AID488969 (Vanderbilt High Throughput Screening Facility, 2010):
Over roughly 110,000 compounds, “z-score” has its median near -0.1; the highest 2% begin near 2. This is one part of the list. The source made the active and inactive calls.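 The calls were made as follows: active = z-score in the third read window above 3 or below -3; inactive = the rest.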

Each compound was assayed against Metabotropic glutamate receptor 8 (Rattus norvegicus) (UniProt P70579) (assay: mGluR8 Gi/Go-coupled signaling modulation – cell-based, rat, thallium flux, HTS, primary screen (AID 488969)). Details: HEK293 rat mGluR8, GIRK (G protein-gated inwardly rectifying potassium channel) thallium flux, FluoZin2; at 10 µM; stronger effect = higher value; submaximal glutamate (EC20) added with thallium.
Chain of UniProt P70579 (P70579 whole entry, looked up): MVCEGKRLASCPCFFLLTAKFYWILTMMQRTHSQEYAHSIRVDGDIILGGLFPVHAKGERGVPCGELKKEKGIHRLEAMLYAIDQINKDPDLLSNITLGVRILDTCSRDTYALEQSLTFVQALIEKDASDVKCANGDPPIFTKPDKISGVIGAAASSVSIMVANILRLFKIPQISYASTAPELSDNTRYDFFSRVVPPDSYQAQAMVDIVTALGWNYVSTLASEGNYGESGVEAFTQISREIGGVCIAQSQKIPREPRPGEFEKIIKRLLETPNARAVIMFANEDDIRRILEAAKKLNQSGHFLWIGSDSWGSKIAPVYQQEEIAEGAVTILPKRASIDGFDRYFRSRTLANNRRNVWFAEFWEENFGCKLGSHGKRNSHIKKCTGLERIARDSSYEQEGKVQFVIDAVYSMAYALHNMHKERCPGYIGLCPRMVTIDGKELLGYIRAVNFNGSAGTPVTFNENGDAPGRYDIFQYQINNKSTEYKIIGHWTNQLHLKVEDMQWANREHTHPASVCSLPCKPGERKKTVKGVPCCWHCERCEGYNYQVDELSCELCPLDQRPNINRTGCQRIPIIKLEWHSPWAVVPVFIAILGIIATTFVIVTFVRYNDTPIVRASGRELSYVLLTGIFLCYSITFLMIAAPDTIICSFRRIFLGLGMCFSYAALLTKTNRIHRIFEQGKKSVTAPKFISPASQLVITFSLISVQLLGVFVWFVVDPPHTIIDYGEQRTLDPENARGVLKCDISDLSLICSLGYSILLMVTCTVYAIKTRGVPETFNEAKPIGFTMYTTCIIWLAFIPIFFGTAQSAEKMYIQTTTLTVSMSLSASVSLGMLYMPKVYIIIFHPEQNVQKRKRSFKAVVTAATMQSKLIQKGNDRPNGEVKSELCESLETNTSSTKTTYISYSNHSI

| Structure (SMILES) | z-score |
| --- | --- |
| Cc1ccc(C(=O)NC(=S)Nc2cc(-c3nc4ccccc4s3)ccc2C)cc1 | 0.216 |
| O=C(CN1CCOCC1)Nc1ncc(Cc2ccccc2Cl)s1 | -0.314 |
| CC(=O)CCc1ccc(OC(=O)c2cccnc2)cc1 | 0.137 |
| CS(=O)(=O)N(CCc1ccccc1)CC(N)=O | -0.42 |
| COc1cc(OC)c(NS(=O)(=O)c2coc(C(N)=O)c2)cc1Cl | 0.426 |
| CC(=O)N(C)c1nnc(-c2cnccn2)s1 | -0.0211 |
| CCC(=O)C1=C(N2CCCC2)CC(C)(C)CC1=O | 0.328 |
| Cc1cc(C(=O)Nc2cccc3ncccc23)no1 | 0.0165 |
| Cc1ccc(CS(=O)(=O)CCC(=O)NCCN2CCCCC2C)cc1 (stereo unspecified) | 1.29 |
| COc1ccc(N(Cc2ccccc2)C(=O)CSc2nnc(Cn3nnc4ccccc43)o2)cc1 | -1.04 |
| Cc1nnsc1NC(=O)OCc1ccccc1Cl | -0.195 |
| COC(=O)c1ccccc1NC(=O)c1cccc(COc2ccccc2Cl)c1 | -0.1 |
| O=C(C1CCCCC1)N1CCN=C1SCc1cccnc1 | -0.208 |
| O=C1NC(c2ccc3c(c2)OCO3)Oc2ccccc21 (stereo unspecified) | -0.859 |
| CC(C)c1ccc(C(=O)NC(=S)NCc2cccnc2)cc1 | -0.0902 |
| C/C(CC(C)(C)C1CCCCC1)=N\NC(N)=S | 1.92 |
| CCC(O)c1cc2c(cc1NC(=O)c1ccc(C)cc1)OCCO2 (stereo unspecified) | -0.0738 |
| COC(=O)c1ccc(N2CN=C(c3ccc(C)cc3)NC2=S)cc1 | -0.484 |
| COc1ccc(-n2nnnc2SC(C)C(=O)NCC(=O)Nc2ccc(F)c(F)c2F)cc1 (stereo unspecified) | -0.346 |
| Cn1c(SCc2ccccc2)nnc1-c1c[nH]c2ccccc12 | 0.0787 |
| CCSc1cc(C)nc2c(-c3ccc(Cl)cc3)c(C)nn12 | 0.367 |
| COc1ccc(C(=O)Cn2nnc(-c3ccccc3NC(=O)C3CCCCC3)n2)cc1 | -1.02 |
| O=C(NC(=S)Nc1ccc2c(c1)OCO2)c1ccccc1 | active: 3.25 |
| O=C1C=C(NC2CC2)C2(CCCCC2)O1 | -0.972 |

| Structure (SMILES) | z-score |
| --- | --- |
| Cc1ccc(-c2noc(C3CCCN(S(=O)(=O)c4ccc(S(=O)(=O)N(C)C)cc4)C3)n2)o1 (stereo unspecified) | -0.0937 |
| CCN(CC)c1ccc(-c2c(C#N)c(N)nc(OC)c2C#N)cc1 | 0.242 |
| CCn1c(SC)nnc1-c1c[nH]c2ccccc12 | 0.0853 |
| CCCCP(=O)(CCCC)CCP(=O)(c1ccccc1)c1ccccc1 | -0.667 |
| COC(=O)Cn1c2ccc(OC)cc2c2nc3ccccc3nc21 | 0.424 |
| CC(=O)c1ccc(-n2c(CCC(=O)O)ccc2-c2cccs2)cc1 | -0.00367 |
| O=S(=O)(c1ccc(Cl)s1)N1CCN(C/C=C/c2ccccc2)CC1 | -0.0433 |
| CCC(C)C(NC(=O)[C@@H](NC(=O)c1ccccc1F)C(C)C)C(=O)OC (stereo partly specified) | -0.348 |
| CCn1cc(C(=O)NCc2cccc(F)c2)c(=O)c2cc(F)c(N3CCN(C(=O)c4ccco4)CC3)cc21 | -0.898 |
| COc1ccc2c(c1)CC(C1(O)C(=O)Nc3ccccc31)C2=O (stereo unspecified) | 0.363 |
| Cc1ccc2nsnc2c1NC(=O)c1cccc([N+](=O)[O-])c1 | -0.21 |
| CCC(=O)Nc1nc(N)n(-c2ccccc2)n1 | 0.054 |
| CCOC(=O)c1cnn(-c2nc3c(C)cccc3s2)c1C(F)(F)F | -0.158 |
| CSCC[C@H](NC(=O)OC(C)(C)C)C(=O)N1CCC(C(=O)N[C@H](C(=O)O)C(C)C)CC1 | -0.119 |
| COc1cccc(OCCOc2c(OC)cccc2OC)c1 | -0.378 |
| CC1CCCC(NC(=O)COC(=O)c2cc(S(=O)(=O)N3CCCCC3)ccc2N2CCOCC2)C1C (stereo unspecified) | -0.428 |
| CCCOc1ccc(C(=O)NCC(c2ccco2)N(C)C)cc1 (stereo unspecified) | 0.052 |
| CCN(c1ccccc1)S(=O)(=O)c1cc(C(=O)Oc2ccc3c(C)cc(=O)oc3c2)ccc1C | -0.781 |
| CSc1nc2ccccc2cc1/C=C(\C#N)c1ccc(Cl)cc1Cl | 0.0292 |
| O=C(CCn1c(=O)c2ccccc2n(CC(=O)NCCC2=CCCCC2)c1=O)NCc1ccco1 | -0.381 |
| Cc1nn(C(=O)c2cccnc2)c(C)c1C | 0.951 |
| O=C(Nc1ccc(F)cc1)c1cc(S(=O)(=O)Nc2ccc(F)cc2)cs1 | -0.0782 |
| Cn1c(=O)c2c(nc(NCCCO)n2Cc2cccc(Br)c2)n(C)c1=O | -0.414 |
| COc1cc(C(c2c(C)[nH][nH]c2=O)c2c(C)[nH][nH]c2=O)ccc1OC(=O)c1cccc([N+](=O)[O-])c1 | -0.286 |

| Structure (SMILES) | z-score |
| --- | --- |
| Cc1nc(Nc2ccc(S(N)(=O)=O)cc2)oc1C | 0.35 |
| CCOCCCNC(=O)Cc1ccc(OC)c(OC)c1 | 0.0289 |
| COc1cccc(C(=O)NCCC2=CCCCC2)c1 | 0.00764 |
| COc1ccc(OC)c(-c2cc(C(=O)NCCN3CCOCC3)no2)c1 | -0.164 |
| O=C(c1cc(-c2ccc(Cl)cc2Cl)on1)N1CCN(C(=O)c2ccco2)CC1 | 0.486 |
| CCN(CC)C(=O)Cc1cc(C(=O)O)c2ccccc2n1 | 0.153 |
| Cc1nn(Cc2ccccc2Cl)c(C)c1NC(=O)Cn1nc([N+](=O)[O-])c(Cl)c1C | -0.13 |
| CC(=O)C1=C(c2ccccc2)NC(=S)NC1c1cc(Cl)c(OC(C)C)c(Cl)c1 (stereo unspecified) | 0.616 |
| Cc1ccccc1-c1cc(-c2ccccc2O)n[nH]1 | -0.969 |
| Cc1cc(=O)oc(C)c1C(=O)NCCC1=CCCCC1 | -0.0341 |
| COc1ccccc1CC(=O)O/N=C(\N)c1cccc([N+](=O)[O-])c1 | -0.313 |
| CCOc1ccc(CNc2nc3ccccc3n2CCN2CCOCC2)cc1 | 0.0891 |
| Cc1ccc(-n2ncc3c(N4CCN(c5ccccc5)CC4)ncnc32)c(C)c1 | 0.679 |
| COc1ccc(CCNc2c([N+](=O)[O-])c(=O)oc3ccccc23)cc1OC | -0.208 |
| COC(=O)Cn1c(=NC(=O)c2cc(OC)cc(OC)c2)sc2cc(OC)ccc21 | -0.00301 |
| COc1ccc(OC)c(C2=NNC(=NCc3ccc4c(c3)OCO4)SC2)c1 | 0.356 |
| COCCn1c(-c2ccc(OC(F)(F)C(F)C(F)(F)F)cc2)nc2c1c(=O)[nH]c(=O)n2CC(C)C (stereo unspecified) | 0.0959 |
| O=C(Cc1ccccc1)NCCc1cn2ccsc2n1 | 0.0181 |
| Cc1ccc(CSc2nnc(-c3ccco3)o2)cc1 | 0.081 |
| O=C(CN(C(=O)CSc1nc2ccccc2o1)c1ccccc1F)NC1CCCCC1 | -0.692 |
| CC(C)OCCCNCC(O)c1ccccc1 (stereo unspecified) | -0.434 |
| COc1ccc(-c2nnc(SCC(=O)NC(C)c3ccccc3)o2)cc1OC (stereo unspecified) | -0.12 |
| Cc1nn(C(=O)CCCC(=O)n2nc(C)c(Cl)c2C)c(C)c1Cl | 0.437 |
